Reference: PubChem BioAssay AID651820 (National Center for Advancing Translational Sciences (NCATS), 2012)
Values joined by “and” are separate entries in the source; they are usually repeats but may differ in a detail not shown here. Equal entries are not always repeated. The campaign covered roughly 340,000 compounds. About 12,000 (3.5%) were called active. Inconclusive results, whose numbers are uncertain, are shown with a selection of clear calls. The call rests on the fitted dose curve; in most records, active means well fitted inhibition curve with a large enough effect; inconclusive means small, poorly fitted or top-dose-only effect, or another doubt; inactive means no such curve, though single readings can be large or run the other way. Potencies beside an inconclusive call are fits to weak or partial responses and may not hold up.

Experiment: qHTS Assay for Inhibitors of Hepatitis C Virus (HCV)
Conditions: Huh7.5.1 HCVcc-Cre (HCVcc is cell-culture hepatitis C virus) infection, luciferase reporter, 44 h; series mostly up to 41.8 µM
Procedure, shortened: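 A cell-based infection assay in which seeded cells (1,000 per well) receive test compound after 4 h, are inoculated with HCVcc-Cre at approximately 0.5 moi, and are incubated 44 h before luminescence detection.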
Potency means the concentration at half of the fitted maximal effect; tags describe the fitted curve by direction and shape.

Structure (SMILES)	Potency
NS(=O)(=O)c1ccc(N=Nc2c(O)[nH]c3ccc(Br)cc23)cc1	inconclusive: 11.2 µM [inhibitor, partial curve]
COC(=O)c1ccc(C2CC(=O)Nc3cc(OC)c(OC)c(OC)c32)cc1 (configuration not stated)	inactive
C=CCn1c(-c2cccs2)nc2nc3ccccc3nc21	inactive
Cc1ccc(C(=O)Nc2ccc(S(=O)(=O)N3CCOCC3)cc2)cc1	inactive
CC(=O)Nc1ccc(/C=C/c2ccc3cccc([N+](=O)[O-])c3n2)cc1	active: 11.2 µM
CCN(Cc1ccccc1)c1ccccc1	inactive
Cc1nc2ccccc2cc1C(=O)NCc1ccccc1	inconclusive: 31.6 µM [inhibitor, single point]
O=C(c1ccco1)N1CCN(c2nc(C3CC3)nc3sc4c(c23)CCCC4)CC1	inconclusive: 11.2 µM [inhibitor, single point]
CCN(CC1CCCO1)C(=O)C1CCN(C2CCN(Cc3ccccc3C)CC2)CC1 (configuration not stated)	inconclusive: 11.2 µM [inhibitor, partial curve, poor fit]
CCCCCn1c(=O)[nH]c2cc(C(=O)NCCN(CC)CC)ccc2c1=O	inconclusive: 3.16 µM [inhibitor, single point]
Cc1ccnc(N2CCC(C(=O)NNC(=O)c3ccncc3)CC2)n1	inactive
Cc1cccc(-c2noc(CN(C(=O)/C=C/c3ccccc3Cl)C(C)C)n2)c1	inconclusive: 31.6 µM [inhibitor, single point]
Cc1cc(N)nc2nc(C(F)(F)F)nn12	inactive
S=C(NCc1ccco1)NCc1ccco1	inactive
Cc1nn(-c2ccccn2)c2nc(-c3cccs3)cc(C(=O)N3CCOCC3)c12	inconclusive: 11.2 µM [inhibitor, single point]
CCSc1nnc(NC(=O)C(C(F)(F)F)C(F)(F)F)s1	inactive
CC1=CC2=NC(=O)/C(=C\c3cc(C)n(-c4ccccc4F)c3C)C(=N)N2O1	inconclusive: 0.562 µM [inhibitor, full curve]
CCOC(=O)c1nn(-c2ccc(F)cc2)c(=O)cc1OCC(=O)N1CCN(c2ccccc2)CC1	inactive
O=C(Cc1cccc(NC(=O)C2CCN(C(=O)C3CC3)CC2)c1)Nc1cccc(C(=O)N2CCCC2)c1	inconclusive: 5.62 µM [inhibitor, single point]
COc1ccc(C(=O)COC(=O)c2ccccc2NS(=O)(=O)c2ccc(O)c([N+](=O)[O-])c2)cc1	inconclusive: 5.01 µM [inhibitor, single point]
Cc1nn(Cc2cccc(Oc3ccccc3)c2)c(C)c1NC(=O)NC12CC3CC(CC(C3)C1)C2	inconclusive: 12.6 µM [inhibitor, partial curve]
COc1ccc([C@H]2CC(=O)C=C(c3cc(F)ccc3F)C2)cc1OC	active: 11.2 µM
O=C(NCCCN1CCC(Cc2ccccc2)CC1)C1CCN(S(=O)(=O)N2CCOCC2)CC1	inconclusive: 31.6 µM [inhibitor, single point]

Structure (SMILES)	Potency
COc1ccc(C2=NS(=O)(=O)N(C)C(C(=O)NC(C)c3ccccc3)=C2)cc1 (configuration not stated)	inactive
COc1cc(CNc2ccc(CNc3ncn[nH]3)cc2)ccc1OCC(=O)NC(C)(C)C	inconclusive: 14.1 µM [inhibitor, partial curve]
CCC(C)(C)n1nnnc1CN(Cc1cccs1)Cc1cc2cc(OC)ccc2[nH]c1=O	inactive
CCCCCCCCNCCS(=O)(=O)NCc1ccc(OC)cc1	inconclusive: 31.6 µM [inhibitor, single point]
COC(=O)/C(=C/c1ccco1)NC(=O)c1ccccc1	inactive
CCN1CCCC1CNCc1cccc(OC)c1OCc1ccccc1F (configuration not stated)	inconclusive: 31.6 µM [inhibitor, single point]
COc1ccc(N=c2oc3c(OC)cccc3cc2C(=O)NCc2ccco2)c(OC)c1	inconclusive: 11.2 µM [inhibitor, partial curve]
Cc1cc(Nc2nc3ccccc3nc2Cl)n(-c2ccc([N+](=O)[O-])cc2)n1	inconclusive: 12.6 µM [inhibitor, partial curve]
CCOC(=O)c1c(NC(=O)CSc2nnc(CNc3ccc(F)cc3)o2)sc(C(C)=O)c1C	inconclusive: 7.94 µM [inhibitor, partial curve] and inconclusive: 20 µM [inhibitor, single point]
CC(=O)N(c1ccccc1)C(C(=O)c1ccccc1)c1ccccc1 (configuration not stated)	inactive
O=C(N/N=C1\C(=O)c2cccc3cccc1c23)c1ccc(O)cc1	inconclusive: 31.6 µM [inhibitor, single point]
N#Cc1c(-c2ccc(F)cc2)nc2n(c1=O)CCS2	active: 22.4 µM
O=C(CSc1ccc(Cl)cc1Cl)N1CCC(c2nc3ccccc3s2)CC1	inconclusive: 11.2 µM [inhibitor, partial curve]
CCOC(=O)N1CCN(S(=O)(=O)c2ccc(C(=O)N(CCCN(C)C)c3nc4c(C)c(C)ccc4s3)cc2)CC1	inconclusive: 10 µM [inhibitor, partial curve]
O=C(Cn1cc(C(=O)c2ccco2)c2ccccc21)Nc1ccccc1	inconclusive: 12.6 µM [inhibitor, single point]
Cc1c(C(=O)N2CCOCC2)[nH]c2c1C(=O)CC(c1ccccc1Cl)C2 (configuration not stated)	inconclusive: 6.31 µM [inhibitor, partial curve]
COCCN1Cc2cccc(C(=O)Nc3ccc(-c4nc5ccccc5[nH]4)cc3)c2C1=O	inactive
COc1ccc([C@H]2CC(=O)C=C(c3cccc(Br)c3)C2)cc1OC	inconclusive: 2.51 µM [inhibitor, single point]
CC1CCc2nc(NC(=O)Cc3cccs3)sc2C1 (configuration not stated)	inconclusive: 11.2 µM [inhibitor, partial curve]
CC(NC(=O)CSC1=NCCS1)c1ccccc1 (configuration not stated)	inactive
Cc1ccc(S(=O)(=O)N2CCC3(CC2)OCCN3S(=O)(=O)c2cccs2)cc1	inconclusive: 5.62 µM [inhibitor, full curve, poor fit]
C=C(C)COc1ccc(-c2[nH]ncc2Oc2ccccc2OCC)c(O)c1	inconclusive: 20 µM [inhibitor, single point]
CC(C)Nc1nc(Cl)nc(NN(C)c2nc(N(C)C)nc(N(C)C)n2)n1	inconclusive: 7.08 µM [inhibitor, full curve, poor fit]

Structure (SMILES)	Potency
COc1ccc(-c2nnc(NC(=O)c3ccc(S(=O)(=O)N(C)CC4CCCO4)cc3)o2)c(OC)c1 (configuration not stated)	inconclusive: 22.4 µM [inhibitor, single point]
CCOC(=O)C1=CN(Cc2ccco2)S(=O)(=O)N(CC)C1c1ccccc1 (configuration not stated)	inconclusive: 0.501 µM [inhibitor, full curve, poor fit]
CC(C)[C@H](NC(N)=O)C(=O)Nc1cccc(S(=O)(=O)NC2=NCCCCC2)c1	inconclusive: 31.6 µM [inhibitor, single point]
CCC(=O)Nc1ccc2c(c1)nc(CCN1CCN(c3ccccc3)CC1)n2C	inconclusive: 3.16 µM [inhibitor, single point]
O=C(CN1CCC(n2nnc3cc(F)ccc32)CC1)NCCc1nc2ccccc2[nH]1	inconclusive: 0.794 µM [inhibitor, full curve]
COc1ccc2nc(NC(=O)C3CCCN(S(=O)(=O)c4cccc5nonc45)C3)sc2c1 (configuration not stated)	inactive and inconclusive: 31.6 µM [inhibitor, single point]
COc1ccc(S(=O)(=O)N2CCC(Cc3ccccc3)CC2)cc1C(N)=O	inactive
C=CCC[C@@H](Cc1ccc(F)cc1)C(=O)OC[C@@H](Cc1ccccc1)NC(=O)[C@H](CC=C)CC(=O)NCCO	active: 7.08 µM
O=C(Nc1ccc(S(=O)(=O)N2CCCCCC2)cc1)c1ccc(Br)o1	inconclusive: 14.1 µM [inhibitor, single point]
COc1ccc(-n2c(C)c3c(OC)cccc(=O)c3c2C)cc1	inactive
COc1cccc(OCC(=O)NNC(=O)c2ccc(-c3ccccc3)cc2)c1	inactive
CCC(C)(C)n1nnnc1CN1CCC(NC(=O)c2ccc(Br)cc2)CC1	inconclusive: 31.6 µM [inhibitor, single point]
COc1ccc(Cl)cc1NC(=O)CN(C)C(=O)Cc1n[nH]c(=O)c2ccccc12	inconclusive: 31.6 µM [inhibitor, single point]
COc1cccc(-c2nn(-c3ccccc3)cc2C(=O)n2nnc3ccccc32)c1	inconclusive: 2.51 µM [inhibitor, single point]
CCc1ccc(-c2cc(C)no2)cc1S(=O)(=O)NCc1ccc(OC)c(OC)c1	inconclusive: 3.55 µM [inhibitor, partial curve]
CCOC(=O)CSc1nc2sc(C)c(C)c2c(=O)[nH]1	inactive
COc1cccc(NC(=O)c2ccc(CN3CCN(c4ccccc4)CC3)cc2)c1	active: 14.1 µM
CCc1ccccc1N1CCN(S(=O)(=O)c2cc(OC)ccc2OC)CC1	inconclusive: 31.6 µM [inhibitor, single point]
Cc1nn(Cc2ccccc2)c2c1C(c1cccc(Cl)c1)C(C#N)=C(N)O2 (configuration not stated)	inconclusive: 2.51 µM [inhibitor, partial curve]
COc1ccc(C(=O)CSc2cc(C)nc3nc(C)nn23)cc1OC	inconclusive: 3.98 µM [inhibitor, partial curve]
N#Cc1ccsc1NC(=O)c1cccc(-n2cnnn2)c1	inconclusive: 2.24 µM [inhibitor, partial curve]
